In the supplement of paper PMC3334620:
In all, about 33,000 sequences were measured (“E-score (-0.5 to 0.5)”: median about -0.016, highest 2% from about 0.32 on). The list shows a part of the results.

biological target: T1, Stp1 (UniProt B3LFK1); test: PBM E-score (8-mer binding enrichment) (E-score (-0.5 to 0.5)); higher = stronger / more preferred TF binding; most listed sequences are background and not binding sites; conditions: protein concentration: 200 nM; construct: GST-full length
T1 sequence: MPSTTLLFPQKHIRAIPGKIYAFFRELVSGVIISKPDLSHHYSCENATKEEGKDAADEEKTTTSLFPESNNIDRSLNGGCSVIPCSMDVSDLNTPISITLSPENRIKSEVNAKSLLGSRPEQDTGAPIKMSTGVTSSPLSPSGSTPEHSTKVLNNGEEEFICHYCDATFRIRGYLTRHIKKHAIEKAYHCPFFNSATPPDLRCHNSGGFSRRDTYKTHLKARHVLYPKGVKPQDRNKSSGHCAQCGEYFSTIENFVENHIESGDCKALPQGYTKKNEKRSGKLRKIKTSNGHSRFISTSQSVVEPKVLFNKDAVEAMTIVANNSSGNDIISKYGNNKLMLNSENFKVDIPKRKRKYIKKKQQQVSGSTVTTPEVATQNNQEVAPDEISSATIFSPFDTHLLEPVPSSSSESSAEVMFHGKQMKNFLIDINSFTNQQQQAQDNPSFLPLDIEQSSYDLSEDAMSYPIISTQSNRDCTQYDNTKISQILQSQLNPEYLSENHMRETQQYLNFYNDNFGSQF
Method: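 Universal 'all 10-mer' protein binding microarrays (Agilent AMADID 015681) probed with GST-tagged S. cerevisiae TFs (full-length or DBD) made by in vitro transcription/translation (PURExpress), about 100-200 nM. Bound TF was detected with fluorescent anti-GST. Each ungapped 8-mer (which stands for itself and its reverse complement) is scored by the PBM enrichment score (E-score), a modified Wilcoxon-Mann-Whitney statistic from -0.5 to +0.5, computed with the Universal PBM Analysis Suite. Scale: above 0.35 generally sequence-specific binding.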

| Sequence | PBM E-score |
| --- | --- |
| ATAGTCCA | -0.132 |
| AGCATCAG | -0.0585 |
| CAACAATG | 0.182 |
| CGTTCCCA | -0.0229 |
| CATATTTC | -0.0206 |
| CCGATTGC | 0.12 |
| GTGGACAC | -0.0491 |
| CCCCATAG | -0.104 |
| CCGTCGAA | -0.001 |
| AAATATTA | 0.23 |
| ACGAGGTA | -0.0774 |
| ATCAATCC | -0.107 |
| AGCTCAAG | -0.204 |
| ACACTATG | -0.0259 |
| GGGCAACC | -0.191 |
| ACTTGTAT | -0.019 |
| CCACCGAG | -0.0168 |
| GCGCGAGC | 0.0786 |
| CTATAGGC | -0.207 |
| CTTGAAAG | -0.0964 |
| TACCCAAA | -0.0397 |
| CCGCAAAC | 0.133 |
| CTAAGTCC | -0.329 |
| GCACGCGA | 0.0767 |
| CTCACTCC | -0.155 |

| Sequence | PBM E-score |
| --- | --- |
| GGGGTGAC | -0.31 |
| CTGAGTTC | -0.0476 |
| AAGCAGCG | 0.128 |
| ACAGTCGA | -0.262 |
| AGGTAACA | 0.0444 |
| GAATGAAC | 0.0379 |
| GCAATCCC | -0.0402 |
| AAAAGAAA | 0.121 |
| GCACTACC | 0.14 |
| GAACCCGA | -0.27 |
| CAGAACGC | 0.0775 |
| GCAAACAC | 0.019 |
| CCCTCGGC | -0.14 |
| GAGTCTCC | -0.243 |
| CAAATCTA | 0.12 |
| CGCGAACC | -0.0627 |
| AAGTTTTC | 0.054 |
| CGACAAAG | 0.119 |
| ATTCCTGC | 0.0215 |
| CTGTTCTC | 0.0232 |
| AGACGAAG | -0.0314 |
| CGACGATA | 0.00131 |
| AAATGCAA | 0.0071 |
| AACGTGGA | 0.0192 |
| AAGGGAGT | -0.231 |

| Sequence | PBM E-score |
| --- | --- |
| CATGAAGA | 0.0929 |
| GTCCTATA | -0.108 |
| ACGACTTG | -0.121 |
| GTGTCTAA | -0.0808 |
| ACGCAAAG | -0.12 |
| AAAGTCCT | -0.113 |
| AGCCCACG | -0.0576 |
| ACAACAGC | 0.122 |
| CTGCTTAC | -0.0697 |
| AAAGGGCA | 0.204 |
| CAACTTCA | 0.0223 |
| TGGGAACA | -0.0869 |
| ATAAGACA | 0.0525 |
| CGCGTATC | 0.142 |
| ATTCCGGG | -0.16 |
| AGGTAATC | -0.0107 |
| AGTTCTGA | 0.0581 |
| GGCCATAA | -0.0556 |
| AATACATC | 0.0214 |
| CCGGATAC | -0.108 |
| AGCGGCTC | 0.388 |
| AATCTGGA | 0.0917 |
| AATACGAC | -0.0582 |
| CGAGAGAG | -0.0625 |
| CGAACGAG | -0.126 |

| Sequence | PBM E-score |
| --- | --- |
| GGCGGCCC | 0.0299 |
| AACATTCA | -0.088 |
| GTCGTTGA | -0.0793 |
| CCATTAGG | -0.209 |
| CGACTCAG | -0.156 |
| ATAATCTG | -0.0477 |
| AGGATCAA | 0.0724 |
| ACCCCACC | -0.0383 |
| CAAGATCA | 0.101 |
| AAATCCCT | -0.0485 |
| CTTTCTAA | 0.17 |
| ATACCCCA | -0.0574 |
| ACTTACTA | -0.164 |
| ATTGTGAA | -0.0259 |
| CAAAGGCG | 0.129 |
| TGGGGACA | -0.294 |
| GAGTCTCA | -0.189 |
| AGACATTA | -0.123 |
| CAGCCCCA | -0.0412 |
| CCTATGAA | -0.0412 |
| GGATACAA | -0.00421 |
| GCAAGGTA | -0.00106 |
| CATTATTA | 0.117 |
| ACCTCACA | -0.131 |
| CACCGCGG | 0.146 |

| Sequence | PBM E-score |
| --- | --- |
| ACCTCGAG | 0.0578 |
| CCTTAAAC | 0.00058 |
| CGGACCGA | 0.0676 |
| TCACAAAA | 0.111 |
| CTTGTGTC | 0.045 |
| CCCGGGAC | -0.277 |
| TGGATAAA | 0.0755 |
| ACGTATCC | -0.239 |
| ACACACCC | -0.168 |
| CGTTGTCC | 0.00282 |
| AGCACGGA | 0.114 |
| CCCTGGAA | -0.287 |
| CCAACTCG | -0.152 |
| ACGGGTTA | -0.118 |
| ATGCCAAG | 0.00136 |
| CCCGAGGC | 0.0336 |
| CTATGGCC | -0.108 |
| CCTGCCGA | -0.135 |
| GTACACTA | 0.0132 |
| TCCATAGA | 0.0976 |
| AAGTTACA | 0.0542 |
| ACAAATGG | 0.0385 |
| CTGTACTA | 0.156 |
| CTACACGC | -0.263 |
| AGCTATCC | -0.233 |

| Sequence | PBM E-score |
| --- | --- |
| TAGTGTGA | -0.0256 |
| AGTCGCGA | 0.064 |
| CATACCAC | -0.0115 |
| CCGCGTGC | 0.329 |
| CGTAACTC | -0.115 |
| AGGTTCAT | -0.15 |
| AGAAGACC | -0.162 |
| GATTAAAA | 0.186 |
| CACATGGC | 0.302 |
| CGAATGGA | 0.0462 |
| TGTTTTAA | 0.154 |
| CATACACA | 0.0768 |
| AATTAAAA | 0.142 |
| ACGTTTAC | -0.0777 |
| ATTCCCGA | -0.198 |
| GGGGCGGA | -0.197 |
| TACACTCA | 0.195 |
| ACCCACCA | -0.132 |
| CATCCGGA | -0.27 |
| ATGTCGAA | 0.0831 |
| CTAAAACA | 0.103 |
| AGACTCAA | -0.0693 |
| CATTAGAG | -0.0957 |
| CTTAGAAC | 0.0906 |
| CCTCGGTC | -0.284 |

| Sequence | PBM E-score |
| --- | --- |
| AATGAATG | 0.0827 |
| AAGTGGCG | 0.28 |
| CTGAAGGA | -0.208 |
| CATTCTGG | -0.0532 |
| CTCTAACA | -0.00243 |
| CTCTAGTA | 0.00502 |
| AATTCTTC | 0.0152 |
| ACCACGAT | 0.0192 |
| GCTCGTGA | -0.144 |
| AGTAGTCC | -0.272 |
| GTCCACCA | -0.0303 |
| GCGTGAGC | 0.193 |
| CAGTTTGG | -0.128 |
| CCTCTTTC | -0.249 |
| CATTACAC | 0.143 |
| GGTTCTAA | 0.125 |
| CGATATGC | 0.104 |
| TAAGGAGA | -0.077 |
| ACCGCTAT | -0.152 |
| ATCCACCG | 0.0474 |
| CCCTTGAA | -0.0509 |
| ATGTTTCG | 0.147 |
